From PubChem BioAssay AID485344 (National Center for Advancing Translational Sciences (NCATS), 2010)
About 6,900 (2%) of roughly 340,000 compounds were called active. No stated cut-off is given here; in the data, active means inhibition above about 30%; inactive means below that, where a call was filed. The entries are a selection whose mix differs from that of the whole data set. Entries without a call were filed so in the source.

biological target: D(2) dopamine receptor (Homo sapiens) (UniProt P14416); experiment: HTS Assay for Allosteric Antagonists of the Human D2 Dopamine Receptor: Primary Screen for Antagonists; details: HEK293 TREx D2 cells, calcium flux, dopamine EC80; at 10 µM; stronger effect = higher value; further: 0% is about no effect
Sequence of UniProt P14416 (P14416 whole entry, looked up): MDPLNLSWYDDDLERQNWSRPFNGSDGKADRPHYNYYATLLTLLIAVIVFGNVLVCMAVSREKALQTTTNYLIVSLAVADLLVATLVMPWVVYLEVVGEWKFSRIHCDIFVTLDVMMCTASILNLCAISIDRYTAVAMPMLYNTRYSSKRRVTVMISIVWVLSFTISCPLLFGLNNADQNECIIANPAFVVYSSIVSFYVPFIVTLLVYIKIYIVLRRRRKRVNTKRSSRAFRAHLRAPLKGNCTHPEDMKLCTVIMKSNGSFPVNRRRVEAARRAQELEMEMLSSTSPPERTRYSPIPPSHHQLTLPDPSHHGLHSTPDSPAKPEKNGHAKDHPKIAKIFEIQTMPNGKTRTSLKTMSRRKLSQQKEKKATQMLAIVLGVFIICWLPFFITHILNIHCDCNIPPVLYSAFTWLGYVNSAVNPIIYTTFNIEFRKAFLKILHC
How it was run: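 Tetracycline-induced HEK293 TREx cells expressing D2 receptor forced-coupled to calcium signalling, loaded with no-wash calcium dye. Compounds added and calcium flux read 180 s, then dopamine added at EC80 and read a further 180 s.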

| Compound | inhibition |
| --- | --- |
| CC(C)Oc1ccc(C(=O)N2CCCCC2CCN2CCCCC2)cc1 (stereo not drawn) | -12.7% |
| CCCOc1ccc(CNC(=O)c2cc3ccccn3n2)cc1 | 9.51% |
| CCOC(=O)c1sc(N2C(=O)c3oc4ccc(F)cc4c(=O)c3C2c2ccc(O)cc2)nc1C (stereo not drawn) | 13.1% |
| Cc1cc(CNC(=O)c2cccc([N+](=O)[O-])c2)c2ccccc2n1 | active: 49.1% |
| O=C(NCC1c2ccccc2CCN1C(=O)CN1C(=O)c2ccccc2C1=O)C1CCCCC1 (stereo not drawn) | active: 30.4% |
| Cc1ccc(N2C(=O)N(Cc3cccc(Cl)c3)c3ccccc3S2(=O)=O)cc1 | -6.66% |
| CCC1CN(C(=O)Nc2cc(Cl)ccc2C(=O)OC)c2ccccc2S1 (stereo not drawn) | 14.7% |
| COc1ccc(OC)c(NC(=O)COCc2cc(-c3ccc(F)cc3)on2)c1 | 14.3% |
| Cc1ccc(C)c(Cn2c(=O)n(CCCC(=O)NCc3ccc4c(c3)OCO4)c(=O)c3sccc32)c1 | 12.2% |
| CCCSc1ncc(Cl)c(C(=O)N2CCN(c3ccc(OC)cc3)CC2)n1 | -10.7% |
| COc1ccc(-c2noc(CCC(=O)NCCN3CCN(c4ccccc4F)CC3)n2)cc1 | active: 64.7% |
| CN(C(=O)c1nn(C)c2c1CS(=O)(=O)c1ccccc1-2)c1cccc(Cl)c1 | 4.48% |
| CCc1ccccc1NC(=O)CSc1nc2c(c(=O)[nH]1)CN(Cc1ccccc1OC)CC2 | 3.59% |
| COc1ccccc1-n1c(=O)n(C)c2c(C(N)=O)nc(-c3cc(OC)c(OC)c(OC)c3)nc21 | 10.4% |
| COc1ccc(C)cc1NC(=O)CCN1CCN(C/C=C/c2ccccc2)CC1 | active: 68% |
| COc1cc2c(cc1NC(=O)C(C)Oc1ccccc1)oc1ccccc12 (stereo not drawn) | 3.7% |
| Cc1cc(C)c2c(N)c(C(=O)Nc3ccccc3C(F)(F)F)sc2n1 | -5.28% |
| O=C(NCc1ccc(Cl)cc1Cl)c1cccc(N2CCCS2(=O)=O)c1 | 10.8% |
| CCn1cc2nc(SCc3cccc(C(F)(F)F)c3)n(Cc3ccc(C)cc3)c(=O)c2n1 | -0.472% |
| Cc1cc(F)ccc1NC(=O)c1c(C)oc2c1C1=NCCN1C=N2 | -13.5% |
| CCOC(=O)N1CCC(NCCNC(=O)c2ccccc2Cl)CC1 | active: 56.3% |
| COc1ccc(-c2cc(C(=O)Nc3cnn(Cc4ccc(F)cc4)c3)no2)cc1OC | 14.4% |
| Cc1ccccc1NC(=O)Cn1nnc(-c2ccc(CN3CCC(C)CC3)cc2)n1 | active: 33.3% |
| O=C(Cc1c(C(=O)O)[nH]c2ccccc12)Nc1cccc(C(F)(F)F)c1 | 5.24% |

| Compound | inhibition |
| --- | --- |
| CCOc1ccc(OCC)c(NS(=O)(=O)c2ccc3c(c2)CCN3C(=O)C2CCC2)c1 | 12.1% |
| Cc1c(Cl)ccc2sc(N3CCN(C(=O)CS(=O)(=O)c4ccccc4)CC3)nc12 | -13.7% |
| CCOc1ccc(CNC(=O)Cn2c(=O)c3cccn3c3ccccc32)cc1 | 4.04% |
| CCCN1CCN(CCCNC(=O)c2c(C)nn(-c3ccc(F)cc3)c2-n2cccc2)CC1 | 4.67% |
| O=C(Nc1ccccc1Br)N1CCC(CN2CCCC2)CC1 | 1.69% |
| Cc1ccc(OCC(=O)Nc2ccc(-c3nc4ccccc4o3)cc2)c(C)c1 | -2.32% |
| CCC(=O)N1CCc2cc(S(=O)(=O)NC(C(=O)Nc3cc(OC)cc(OC)c3)C(C)C)ccc21 (stereo not drawn) | -13.8% |
| CCc1ccc(C(=O)NC2=NC(c3ccccc3F)CC(=O)N2)cc1 (stereo not drawn) | 5.3% |
| CCOC(=O)c1c(NC(=O)c2ccc(C)c(C)c2)sc2c1CCCCC2 | 14.7% |
| COCCCNC(=O)c1ccc2nc(CCc3ccccc3)oc2c1 | 5.54% |
| O=C(Nc1ccc(Cl)cc1)N1CCC(c2nc(-c3ccccc3Cl)no2)CC1 | active: 31.2% |
| COC(=O)c1cc2oc3ccccc3c2n1CC(=O)Nc1ccc(C)cc1C | 19.7% |
| CN(C)CCNC(=O)c1ccc2c(c1)N(Cc1c(F)cccc1Cl)C(=O)c1ccccc1S2 | 3.61% |
| CCOC(=O)Cn1c(=O)oc2cc(S(=O)(=O)N3CCN(c4cc(C)ccc4C)CC3)ccc21 | -5.87% |
| Cc1nnc(N2CCCC(C(=O)NCCc3ccccc3)C2)c2nn(-c3ccccc3)c(C)c12 (stereo not drawn) | -12.5% |
| Cc1cc(C)c(NC(=O)Cn2c(=O)n(Cc3ccc(C(=O)NCc4ccco4)cc3)c(=O)c3sccc32)c(C)c1 | 15.6% |
| Cc1ccc(S(=O)(=O)c2nc(-c3cccc(Cl)c3)oc2NCc2ccccc2)cc1 | -8.08% |
| Cc1nc2c(c(C)nn2-c2ccccc2)c(C)c1CCC(=O)NCc1ccccc1 | -6.26% |
| CCc1cccc(NC(=O)C2CCN(S(=O)(=O)c3cccc(-c4noc(C)n4)c3)CC2)c1 | -14.5% |
| CCN1CCN(c2cc(C)c3cc(NC(=O)c4ccc(OC)c(OC)c4)ccc3n2)CC1 | 3.51% |
| CCN1CCN(Cc2c(O)ccc3cc(-c4ccc(OC)cc4)c(=O)oc23)CC1 | -2.52% |
| COc1ccc(C)cc1Nc1nc(N)c2cc(OC)c(OC)cc2n1 | 10.1% |
| CC(=O)c1cccc(NC(=O)c2nc(-c3ccccc3)n(-c3ccccc3C)n2)c1 | 8.59% |
| COc1ccc(C2c3cccn3CCN2S(=O)(=O)c2ccc([N+](=O)[O-])cc2)cc1 (stereo not drawn) | 18.5% |

| Compound | inhibition |
| --- | --- |
| O=C(NCC1CCCN(Cc2ccccc2F)C1)c1cccc(C(F)(F)F)c1 (stereo not drawn) | active: 31.5% |
| CCC1CN(C(=O)C2CCN(S(=O)(=O)c3c(C)noc3/C=C/c3ccccc3F)CC2)c2cc(C)ccc2O1 (stereo not drawn) | -22.2% |
| Cn1c(CCC(=O)O)nc2cc(S(=O)(=O)N3CCCCC3)ccc21 | active: 32.5% |
| COCCN1CCN(Cc2ccc(C(=O)NC(C)C)cc2)C(=O)C1=O | 7.5% |
| CCCCn1c(SCC(=O)NCc2ccc(C)cc2)nc2c(sc3ccccc32)c1=O | 8.07% |
| COc1ccc(CNC(=O)C(C)n2c(=O)cc(C)c3c(C)nn(-c4ccccc4)c32)cc1 (stereo not drawn) | -11.2% |
| COc1ccc(NC(=O)c2oc3ccccc3c2NC(=O)Cc2cccs2)c(OC)c1 | -8.74% |
| COc1ccc(N(CC(=O)NCCc2ccc(Cl)cc2)S(=O)(=O)c2c(C)nn(C)c2C)cc1 | 1.49% |
| COc1ccc(N2CCN(C(=O)Nc3ccc(S(=O)(=O)N(C)C)cc3)CC2)cc1 | active: 41.1% |
| Cc1ccc(Sc2ccc(N3CCCC(C(=O)Nc4ccc(F)cc4F)C3)nn2)cc1 (stereo not drawn) | 9.17% |
| CCOC(=O)C1CCN(C(=O)c2nn(-c3ccc(OC)cc3)c(=O)c3c2c2ccccc2n3C)CC1 | 11.8% |
| CC1CCN(CC(=O)N2CCc3ccccc32)CC1 | active: 53.6% |
| Cc1ccc(-c2noc(-c3nnn(CC(=O)Nc4cc(Cl)ccc4C)c3N)n2)cc1 | 6.8% |
| Cc1nn(C)c2c1c(C(F)(F)F)cc(=O)n2CC(=O)N1CCC(C)CC1 | 11.2% |
| Cc1ccc(CSc2nc3cccnc3n2Cc2ccc(C(=O)NCCc3cccs3)cc2)cc1 | -6.37% |
| O=C(NC1=NCCS1)c1cc(-c2cccnc2)nc2ccccc12 | active: 33.2% |
| CC1CCN(S(=O)(=O)c2cc(C(=O)N3CCN(c4ccccc4F)CC3)n(C)c2)CC1 | 0.372% |
| COc1ccc(CN2CCCN(CC(=O)Nc3ccc4c(c3)OCCO4)S2(=O)=O)cc1 | -8.79% |
| COc1ccc(C2CC(=O)N(CC(=O)Nc3cccc(C)c3C)c3ccccc3S2)cc1OC (stereo not drawn) | 24.5% |
| Cc1ccc(C(=O)N2CCC(C(N)=O)CC2)cc1NC(=O)c1nsc2ccccc12 | -27.5% |
| COc1ccccc1CNC(=O)CCCn1c(=O)c2ccccc2n(Cc2ccc(C)cc2)c1=O | 0.0126% |
| COc1ccc(-n2nc(C(=O)N3CCN(c4cccc(C)c4)C(C)C3)c3c4ccccc4n(C)c3c2=O)cc1 (stereo not drawn) | -3.83% |
| CCCn1ccc2c(OCC(=O)Nc3ccc(F)cc3F)cccc2c1=O | -3.47% |
| Cc1cccc(OCC(=O)Nc2ccc3c(c2)N(C)C(=O)c2ccccc2S3)c1 | 5.3% |

| Compound | inhibition |
| --- | --- |
| NC(=O)C1=C[C@H](c2ccc3c(c2)OCO3)C[C@H](OCc2ccc(CO)cc2)O1 | active: 33.1% |
| Cc1cccc(NC(=O)CSc2nc3c([nH]c4ccccc43)c(=O)n2-c2ccc(F)cc2)c1C | -12.7% |
| COc1ccc(NC(=O)c2ccco2)cc1NC(=O)COc1ccccc1Cl | 11.4% |
| Cc1ccc(C(=O)N/C(=C\c2cn(S(=O)(=O)N(C)C)c3ccccc23)C(=O)NCCCn2ccnc2)cc1 | 0.556% |
| COc1ccc(C(=O)N2CCC(C(=O)Nc3ccccc3Cl)CC2)cc1 | 16.9% |
| CCCn1cc(S(=O)(=O)c2ccccc2)c(=O)c2cc(F)c(N3CCCC3)cc21 | 3.43% |
| COc1ccc(S(N)(=O)=O)cc1C(=O)NCCCN1CCN(c2cccc(Cl)c2)CC1 | active: 49.6% |
| CCc1ccccc1NC(=O)c1cc(S(=O)(=O)NC2CCCC2)ccc1F | -12% |
| CCN1CCN(CCOCCOc2ccccc2-c2ccccc2)CC1 | active: 60.1% |
| Cc1ccc(NC(=O)Cn2cc(S(=O)(=O)N3CCCC3)c(S(=O)(=O)N3CCCC3)c2)c(C)c1 | -0.96% |
| O=C(NCCc1ccc(Cl)cc1)c1cccn1-c1nnc(N2CCCC2)s1 | 7.8% |
| COCCn1c(C)cc(C(=O)Cn2nc(C(=O)O)c3ccccc3c2=O)c1C | active: 32.4% |
| CCOc1ccccc1N(C)C(=O)NCc1noc2ccccc12 | 4.75% |
| CCOc1ccccc1NS(=O)(=O)c1ccc2oc(=O)c3ncn(C)c3c2c1 | 0.32% |
| CCn1cc(C(=O)NC(C)c2ccccc2)c(=O)c2cc(S(=O)(=O)N3CCc4ccccc4C3)ccc21 (stereo not drawn) | 2.3% |
| Cc1ccc(-n2nc(C)c3nc(CCC(=O)Nc4ccc(F)cc4)c(=O)n(C)c32)cc1 | 6.75% |
| COc1ccccc1NC(=O)C1=C(C)Nc2ncnn2C1c1ccccn1 (stereo not drawn) | -3.08% |
| CC(C)Sc1ncc(Cl)c(C(=O)Nc2ccc(S(=O)(=O)N3CCCCC3C)cc2)n1 (stereo not drawn) | 14.6% |
| COc1ccc(OC)c(CNC(=O)c2cccc(NC(=O)N3CCSc4ncccc43)c2)c1 | 2.54% |
| Cc1ccc(C)c(N(CC(=O)NC2CCCC2)C(=O)CCC(=O)Nc2cc(C)on2)c1 | active: 36.3% |
| COc1ccccc1N1CCN(CC(=O)Nc2ccc(Cl)c(C(F)(F)F)c2)CC1 | active: 80.7% |
